Assay results reported in PubChem BioAssay AID1159614 (National Center for Advancing Translational Sciences (NCATS), 2016).
The whole screen tested about 45,000 compounds, of which about 65 (0.1%) were called active. The call rests on the fitted dose curve; in most records, active means well fitted activation curve with a large enough effect; inconclusive means small, poorly fitted or top-dose-only effect; inactive means no such curve, though single readings can be large or run the other way. This is one part of the list.

target: Galactocerebrosidase (Homo sapiens) (UniProt P54803); assay: A Novel Cell-Based Assay to Identify Small Molecules for B -Galactocerebrosidase; details: 145M-Twi-hGALC-G270D cells (Twitcher mouse brain line with human GALC G270D), HMU-beta-Gal fluorescence, 48 h; series mostly up to 57.5 µM; activation: at the top concentration; further: 0% is about no effect; nearly all actives have a fitted effect of over 65% in size
From the text: Lysosomal storage diseases (LSDs) are caused by genetic mutations in genes encoding proteins important for normal lysosomal function. Globoid cell leukodystrophy (GLD), mostly known as Krabbe disease, is a prototype of the neurological LSDs caused by deficiency of beta-galactocerebrosidase (GALC). In brain specimens of GLD patients, psychosine levels are substantially elevated. At elevated concentrations, psychosine becomes cytotoxic to neuronal cells, particularly to oligodendrocytes (OLG), neural cells responsible for myelin formation. Therefore, the biochemical disturbances in GLD are manifested by different degrees of brain demyelination resulting in a broad spectrum of neurological manifestations. Most of the FDA-approved therapies are based on enzyme replacement therapeutic (ERT) agents, which treat non-neurological symptoms of Gaucher disease, Fabry disease, few mucopolysaccharidoses and Pompe disease. Unfortunately, in GLD, a primarily neurological LSD, ERT agents, as large molecular weight molecules unable to cross the blood-brain barrier, which makes this an inefficacious therapeutic approach. In GLD, increasing the residual GALC activity just above the critical threshold (~10% of wild type enzymatic activity), the cytotoxic levels of psychosine will be reduced, avoiding the OLGs apoptosis and the subsequent demyelination process. This will translate in disease stabilization and amelioration of GLD patient symptoms.
A cell-based assay in 1,536-well plate format was developed to implement a quantitative high-throughput screening (qHTS) assay using GLD-disease relevant cells to identify small molecules that produce enhancements of the residual enzymatic activity levels of mutants GALC found and prevalent in GLD patients. Compounds that are active may therefore have some therapeutic application for GLD. After the treatment of live cells for a determined period, using a fluorescent GALC specific substrate, the mutant residual GALC activity is measured. This cell-based qTHS assay was used to screen part of the MLPCN library for small molecule able to increase the mutant GALC enzymatic activity. In this assay, increased fluorescent signal corresponds to enhanced levels of mutant GALC residual enzymatic activity. Activation is the desired outcome for this assay.
NIH Chemical Genomics Center [NCGC]
NIH Molecular Libraries Probe Centers Network [MLPCN]
Assay Submitter (PI): Gustavo Maegawa MD,PhD, University of Florida, Gainesville, FL
2)#Two cell lines were established for the assay: 145M-Twi-hGALC-G270D (brain-derived Twitcher cell line stably expressing human GALC-G270D) and 145M-Twi-hGALC-WT (same 145M-Twi stably expressing human GALC wild type). The Twitcher is the murine C57B/6 model for GLD with naturally occurring homozygous nonsense GALC mutation. The 145M-Twi cell line was established at Maegawa lab (Ribbens J et al 2014).
a.#Media: DMEM/F12 (1:1) with 10% fetal bovine-serum (FBS) with penicillin/streptomycin (PS-1X - 100 I.U./mL of penicillin+100 ug/mL of streptomycin).
b.#The 6-Hexadecanoylamino-4-methylumbelliferyl-b-D-galactoside (HMU-B-gal) substrate was prepared as per Wiederschain et al 1992. Using 20-mL borosilicate tubes, 2.20 mg of HMU-b-Gal was added in each tube to prepare substrate-film with a final air-nitrogen stream evaporation to remove all diluent solvents.
c.#The HMUb-Gal substrate buffer consists of 0.2 M Na2HPO4 (sodium phosphate dibasic)/ 0.1 M Citric Acid with the pH adjusted to 5.2 using HCl. Sodium Azide at 0.02% and Sodium Taurocholate (NaTC) at 1 mg/mL were added to this substrate buffer.
d.#The HMU-b-Gal stopping buffer consist of 0.5 M NaHCO3 (sodium bicarbonate) /0.5 M Na2CO3 (sodium carbonate). […] Triton X-100 at 0.25% was added.
4)#Preparation of HMU-b-Gal substrate tubes
Adding 18.6 mL of the HMUb-Gal substrate buffer to each 20-mL tube (2.20 mg of HMU-b-Gal) will reach a concentration of 0.2 mM. Vortex well the tube until the solution is fully homogenized (clear cloudy solution). […]

UniProt P54803, sequence (P54803 whole entry, looked up): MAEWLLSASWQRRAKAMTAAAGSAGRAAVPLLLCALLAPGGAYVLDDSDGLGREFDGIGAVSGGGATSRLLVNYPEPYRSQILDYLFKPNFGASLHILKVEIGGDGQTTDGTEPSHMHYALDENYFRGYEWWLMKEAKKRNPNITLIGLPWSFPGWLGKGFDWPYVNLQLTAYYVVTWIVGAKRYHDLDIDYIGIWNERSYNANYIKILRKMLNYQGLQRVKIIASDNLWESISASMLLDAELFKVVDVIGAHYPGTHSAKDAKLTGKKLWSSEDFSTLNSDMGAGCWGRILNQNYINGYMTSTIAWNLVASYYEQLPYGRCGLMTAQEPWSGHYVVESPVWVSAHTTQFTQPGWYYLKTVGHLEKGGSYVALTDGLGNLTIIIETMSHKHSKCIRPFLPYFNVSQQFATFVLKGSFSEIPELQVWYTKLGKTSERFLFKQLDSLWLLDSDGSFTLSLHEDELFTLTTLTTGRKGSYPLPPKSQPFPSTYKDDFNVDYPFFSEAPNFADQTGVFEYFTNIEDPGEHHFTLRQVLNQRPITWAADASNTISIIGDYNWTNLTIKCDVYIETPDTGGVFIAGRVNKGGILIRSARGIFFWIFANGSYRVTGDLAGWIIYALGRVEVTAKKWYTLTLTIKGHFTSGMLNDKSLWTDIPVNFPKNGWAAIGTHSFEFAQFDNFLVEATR

activation, inactive:
COc1ccc2c(c1)c1c3n2CCN(C)C3=NCC1 -11%
CC(C)C(C)(C)C(C)(C)C(C)(C)S -5.6% [at 114 µM]
COc1ccc(C(CNC(=O)COc2cc(C)c(Cl)c(C)c2)N2CCCCC2)cc1 (configuration not stated) -10.8%
Cc1ccccc1C(=O)Nc1cccc(-c2nc3cccnc3s2)c1 -3.98%
CCCN(CCC)C(=O)c1c[nH]c2ccc(S(=O)(=O)N(C)c3ccc(Cl)cc3)cc2c1=O -10.8%
OCCN1CCN(CCCN2c3ccccc3Sc3ccc(Cl)cc32)CC1 -5.68%
COc1ccc(Cn2ccc3nc(C)c(C(=O)Nc4ccc(OC)c(OC)c4)cc3c2=O)cc1 -8.85%
O=C(CSc1nc(=O)n(Cc2ccncc2)c2c1CCC2)Nc1ccccc1 -11.3%
COc1cccc(N2CCN(C(=O)CCn3nc(C)c(S(=O)(=O)N4CCCC4)c3C)CC2)c1 -8.37%
CCn1cc(C(=O)N2CCN(c3ccccc3OC)CC2)c2cc(OC)c(OC)cc2c1=O -10.9%
N[C@H]1C(O)O[C@H](CO)[C@@H](O)[C@@H]1O (some centres not stated) -8.77%
CCc1ccc(OCC(=O)Nc2c(C(=O)c3ccc(Br)cc3)oc3ccccc23)cc1 -10.5%
CCC(Oc1ccccc1)C(=O)Nc1nnc(S(=O)(=O)N2CCCC2)s1 (configuration not stated) -6.05%
CCOc1cccc2sc(=NC(=O)c3ccc(S(=O)(=O)N4CCOCC4)cc3)n(C)c12 1.61%
CCc1ccc(NC(=O)c2ccc(CNS(=O)(=O)c3ccc4c(c3)C(C)(C)C(=O)N4C)cc2)cc1 -9.61%
CCOC(=O)c1cnc2c(OC)cccc2c1N1CCN(c2ccccc2F)CC1 -31.5%
COc1ccc(CCNC(=O)CCCCn2c(=O)c3ccccc3n(Cc3cccc(C)c3)c2=O)cc1OC -14.9%
CCOc1ccc(CCNc2ncnc3onc(C)c23)cc1OCC -13.8%
COc1ccc(CNC(=O)c2ccc(-c3nc(CSc4ccccc4)c(C)o3)cc2)cc1 -9.86%
COc1ccc(C(=O)Nc2ccc3c(c2)CCCN3S(=O)(=O)c2ccc(C)cc2)cc1 -1.06%
COc1ccc(NC(=O)c2oc3ccccc3c2NC(=O)c2cc(=O)c3ccccc3o2)cc1 -7.99%
CCCCN(CCCC)CCn1cnc2c([nH]c3ccc(OC)cc32)c1=O 0.464%
Cc1ccc2c(c1)-c1nc(-c3ccccc3)cc(-c3ccccc3)c1CO2 -12.3%
C=C1C[C@H]2[C@@H]3C=C(C)C4=CC(=O)CC[C@]4(C)[C@H]3CC[C@]2(C)[C@@]1(OC(C)=O)C(C)=O -9.99%
CCc1ccc(-c2nc(CN3CCCC(C(=O)NCc4ccccc4Cl)C3)c(C)o2)cc1 (configuration not stated) -2.71%
COc1cc(C(=O)N(CCCN(C)C)c2nc3c(OC)cccc3s2)cc(OC)c1OC -5.43%
O=C(NC1CCCC1)c1ccc2c(c1)N(Cc1c(F)cccc1Cl)C(=O)c1ccccc1S2 -0.984%
Cc1nn2c(=O)cc(COC(=O)c3ccccc3NC(=O)C3CCCCC3)nc2s1 -10.2%
CCOc1ccc(N(CC)S(=O)(=O)N2CCCC(C(=O)NCc3ccccc3OCC)C2)cc1 (configuration not stated) -19.8%
COc1cc(-c2cc3n(C)c(C)c(CCC(=O)NC4CCC(C)CC4)c(=O)n3n2)cc(OC)c1OC (configuration not stated) -7.02%
O=C(NCCc1csc(-c2cccc(F)c2)n1)c1ccco1 -3.95%
NS(=O)(=O)c1ccc(CCNC(=O)Cn2c(=O)c3cccn3c3ccc(F)cc32)cc1 -6.93%
COc1ccc2c(c1)CC(C(=O)Nc1c(C)cc(C)cc1C)CO2 (configuration not stated) -5.75%
Cc1nn(CC(=O)NC(C)c2ccccc2)c(=O)c2cc3occc3n12 (configuration not stated) -5.93%
COc1cccc2c1Oc1ncccc1N(C(=O)CCC(=O)NCc1ccc(OC(C)C)cc1)C2 -16.2%
CCOC(=O)C1=C(CN2CCN(c3ccc(Cl)cc3)CC2)NC(=O)NC1c1ccc(F)cc1 (configuration not stated) -7.91%
O=C(CSc1nc2c([nH]c3ccccc32)c(=O)n1-c1ccccc1)Nc1ccccc1C(F)(F)F -1.41%
NC(=O)COc1ccc(-c2noc(COc3ccc(Cl)cc3)n2)cc1 -4.83%
COc1ccc(OC)c(NC(=O)CCCOc2cc(=O)n(C)c3ccccc23)c1 -5.61%
COc1cccc(NC(=O)CSC2=Nc3ccccc3C3=NC(CCC(=O)NC4CCCCC4)C(=O)N23)c1 (configuration not stated) -20.5%
COc1cc(CNCCCSc2nnnn2C)cc(Br)c1OC -24%
Cc1[nH]c2ccccc2c1C1(O)C(=O)Nc2ccc(Cl)cc21 (configuration not stated) -12.3%
COc1cccc(C(=O)NCC(c2ccc3c(c2)OCO3)N2CCN(C)CC2)c1 (configuration not stated) -18.5%
CCc1ccccc1-n1nnc(-c2nc(-c3ccccc3F)no2)c1C -36.4%
Cc1ccc(-n2c3c(c(=O)[nH]c2=O)C(NC(=O)C(C)(C)C)(C(F)(F)F)C(=O)N3)cc1 (configuration not stated) -5.74%
O=C(Nc1cccc(F)c1)C1CCN(c2nc3ccccc3nc2C(F)(F)F)CC1 -17%
O=C(CCSCc1cccc(F)c1)NCCc1ccccc1 2.96%
Cc1ccc(N2CC(C(=O)NCCS(=O)(=O)N3CCN(c4ccc(F)cc4)CC3)CC2=O)cc1 (configuration not stated) -17.7%
CCc1ccccc1NC(=O)Cn1cc(C(=O)c2ccncc2)c(=O)c2cc(C)ccc21 -18.4%
O=C(CCSCCc1ccccn1)Nc1ccccc1C(F)(F)F -4.23%
O=C(COCc1cc(-c2ccc(F)cc2)on1)Nc1cc(Cl)cc(Cl)c1 -16.3%
Cc1ccc(-n2ncc3c(NCCc4ccccc4)ncnc32)cc1Cl -12.9%
COc1ccc(CCNC(=O)c2cc(-c3ccc(C)cc3)nc3n[nH]c(-c4ccc(F)cc4)c23)cc1OC -11.5%
COc1cccc(Cn2c(=O)n(-c3cc(C)cc(C)c3)c(=O)c3oc4ccccc4c32)c1 10.2%
Cc1c(Cl)cccc1-c1ccc(C(=O)Nc2ccc3oc(-c4cccnc4)nc3c2)o1 -27.9%
CCC(CC)C(=O)Nc1cccc(-c2cn3cccnc3n2)c1 2.24%
Cc1ccc2c(=O)c(C(=O)c3cccc(Cl)c3)cn(CC(=O)NCc3ccccc3)c2n1 -15.1%
COc1cc(OC)c(NC(=O)Cn2c(=O)nc(-c3ccccc3)c3ccccc32)cc1Cl -2.73%
COCCCNc1oc(-c2ccc(COc3ccccc3C)o2)nc1C#N -12%
CC1=C(C(=O)Nc2cccc(F)c2)C2(CCCCCC2)OC1=O -0.28%
Cc1ccc(N2CCN(S(=O)(=O)c3nnc(NC(=O)c4cccc(F)c4)s3)CC2)cc1 -10%
CCc1ccc(C2=CC(c3cccc(OC)c3OC)n3c(nc4ccccc43)N2)cc1 (configuration not stated) -23.4%
CCOc1cc(CNC(=O)c2cc(-c3ccc(Cl)s3)nc3ccccc23)ccc1OC -1.91%
COc1ccc(CCNC(=O)Cn2c(=O)cc(C(F)(F)F)c3c(C)nn(C)c32)c(OC)c1 -12.4%
CCCN1CCN(CCCNC(=O)c2cc3c(=O)[nH]c4ccccc4c3s2)CC1 -0.803%
COc1ccc(NC(=O)CNC(=O)Cn2ccc3ccccc3c2=O)c(OC)c1 -7.94%
O=C(Cn1cccc1C(=O)c1ccccc1)NCc1ccc(Cl)cc1 1.11%
Cc1cc(C)c2c(NC(=O)c3ccccc3Cl)c(C(=O)Nc3ccc(C)c(C)c3)sc2n1 -5.71%
CCc1ccccc1NC(=O)c1nnn(CC(=O)Nc2c(C)cc(C)cc2C)c1N -12.6%
CN(C(=O)CSc1nc2ccc(NC(=O)c3ccco3)cc2s1)c1ccccc1 -32.3%
Cc1ccc(CNC(=O)c2cnc(N3CCCC3)nc2C)cc1 -9.44%
CCC1=Nc2cc(C(=O)NC3CCCC3)ccc2Sc2ccc(Cl)cc21 -13.3%
COc1cc(CNCCSc2nnnn2C)ccc1OCc1ccccc1 -13.3%
COc1ccc(N2CCN(C(=O)c3c(C)oc4ncn(CC(C)C)c(=O)c34)CC2)cc1 -9%
COC(=O)c1ccc(NC(=O)C(C)N2Cc3ccccc3C2=O)cc1 (configuration not stated) -10.5%
CCOC(=O)c1cc(S(=O)(=O)N2CCN(c3cccc(C)c3)C(C)C2)[nH]n1 (configuration not stated) -10.8%
Cc1ccc2nc3sc(C(=O)Nc4ccc(F)cc4)cc3cc2c1 -8.09%
COCCn1c(C)cc(O)c(C(c2ccc(OC)cc2)N2CCCCC2)c1=O (configuration not stated) -4.73%
CC1CN(C(=O)Nc2ccc(C(=O)NCCc3ccc(Cl)cc3)cc2)c2ccccc2S1 (configuration not stated) -2.22%
CCOc1ccc(NCc2cccn2-c2nnc(N3CCC(C(=O)NCCc4ccc(OCC)c(OCC)c4)CC3)s2)cc1 -0.666%
CCCN1Cc2cccc(C(=O)Nc3ccccc3F)c2C1=O -12%
CCCC(=O)Nc1ccc2nc(SCCOc3ccccc3)sc2c1 -14.9%
Cn1c(C(=O)NCCc2ccccc2)cc2cc(S(=O)(=O)N3CCCCC3)ccc21 -10.5%
Cc1cccc(NC(=O)C(=O)NCC(c2cccnc2)N2CCN(Cc3ccccc3)CC2)c1 (configuration not stated) -20.7%
Cc1ccccc1NC(=O)CSCn1nnc2c(=O)[nH]c(Cc3ccc(F)cc3)nc21 -8.16%
CC(=O)Oc1cccc2c1C(=O)c1c(OC(C)=O)cc(C(=O)O)cc1C2=O -9.3%
COc1ccccc1C(=O)Nc1nnc(S(=O)(=O)N2CCCCC2)s1 -11.7%
CCOC(=O)c1c(Nc2ccc(OCC)cc2)nnc(-c2ccccc2)c1-c1ccccc1 -33.7%
CC(C)(C)OC(=O)N1CCC(c2c(C(=O)NCCc3ccsc3)cnn2-c2ccc(F)cc2F)CC1 5.35%
COc1ccc(Cl)cc1NC(=O)c1c(NCc2cccnc2)sc2c1CCCC2 -7.94%
Cc1ccccc1NC(=O)Cn1c(=O)n(Cc2ccco2)c(=O)c2ccc(C(=O)NC3CCCC3)cc21 -16.5%
Cc1cc(-c2ccccc2)nc2cc(C(=O)Nc3ccc(Cl)c(Cl)c3)nn12 -14.3%
COc1ccc2ncc3c(-c4ccccc4)nn(-c4ccc(C)c(C)c4)c3c2c1 7.35%
COc1ccccc1NC(=O)CSc1ncc(CO)n1Cc1ccc(F)cc1 -1.35%
CC(C)c1cnc2c(c1SCC(=O)c1ccc(Cl)cc1)c(=O)n(C)c(=O)n2C 4.67%
COc1cc(OC)c(NC(=O)c2nn(C)c3c2COc2ccccc2-3)cc1Cl -7.1%
Cc1ccccc1NC(=O)Cn1nnc(C(=O)NCc2ccco2)c1N -5.34%
